# Reference: PubChem BioAssay AID1461 (National Center for Advancing Translational Sciences (NCATS), 2008)
# Out of some 220,000 compounds screened, about 2,300 (1%) were called active. This list was built around the results that the source calls inconclusive (neither active nor inactive); the mix of calls is not that of the screen. Calls come from the whole dose curve; as a rule, active = well fitted inhibition curve with a large enough effect; inconclusive = small, poorly fitted or top-dose-only effect, or effect the other way; inactive = no such curve, though single readings can be large or run the other way. Potencies of inconclusive entries are left out as doubtful fits.
# Molecular target: Neuropeptide S receptor (Homo sapiens) (UniProt Q6W5P4)
# Test: qHTS Assay for Antagonists of the Neuropeptide S Receptor: cAMP Signal Transduction; note: nearly all actives have a fitted effect of over 50% in size
# Conditions: CHO-NPSR cells, cAMP TR-FRET, antagonist mode; series mostly up to 38.3 µM
# Potency is the fitted concentration of half-maximal effect; tags give direction and shape of the fitted curve.
# Sequence of UniProt Q6W5P4 (Q6W5P4 whole entry, looked up): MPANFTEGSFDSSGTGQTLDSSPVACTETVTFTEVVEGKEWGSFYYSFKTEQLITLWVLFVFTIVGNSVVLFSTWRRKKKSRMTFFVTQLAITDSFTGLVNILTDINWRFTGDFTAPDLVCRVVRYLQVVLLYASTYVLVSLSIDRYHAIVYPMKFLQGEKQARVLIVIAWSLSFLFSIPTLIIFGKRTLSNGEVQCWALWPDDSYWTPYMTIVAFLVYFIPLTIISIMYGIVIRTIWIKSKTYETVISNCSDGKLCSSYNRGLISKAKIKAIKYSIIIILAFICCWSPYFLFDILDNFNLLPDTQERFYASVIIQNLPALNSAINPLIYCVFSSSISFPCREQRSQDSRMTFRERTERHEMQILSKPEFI
row,Compound,Potency
1,O=C(C1CCCCC1)N1CC(=O)N2CCc3ccccc3C2C1 (stereo not drawn),"inconclusive [inhibitor, partial curve]"
2,CCc1ccc2[nH]c(=O)c(CN(CCCN3CCOCC3)C(=O)Nc3ccc(Cl)cc3)cc2c1,"inconclusive [inhibitor, single point]"
3,CCOc1ccc(C(C(=O)NC2CCCC2)N(Cc2ccccc2)C(=O)c2nsc(Cl)c2Cl)cc1 (stereo not drawn),"inconclusive [inhibitor, single point]"
4,COc1ccc(N=C2SC(CC(=O)Nc3ccccc3)C(=O)N2Cc2ccco2)cc1 (stereo not drawn),"inconclusive [inhibitor, single point]"
5,CC1CC2=C(NC(=S)NC2c2ccccc2F)/C(=C/c2ccccc2F)C1 (stereo not drawn),"inconclusive [activator, single point]"
6,COc1ccc(N2CCN(Cc3nc4c(c(=O)n(C)c(=O)n4C)n3CCc3ccccc3)CC2)cc1,"inconclusive [inhibitor, single point]"
7,COc1ccccc1C(=O)Nc1nc(-c2ccc(S(=O)(=O)N3CCOCC3)cc2)cs1,"inconclusive [inhibitor, single point]"
8,Cc1ccc(OCc2nnc(SCC(=O)c3ccccc3)n2-c2ccccc2)cc1,"inconclusive [inhibitor, single point]"
9,Cc1cc(C)cc(N(C(C)C(=O)N2CCCCC2)S(C)(=O)=O)c1 (stereo not drawn),"inconclusive [inhibitor, single point]"
10,Cc1c(C(=O)Nc2ccc(F)cc2)c2ccccn2c1CCc1ccncc1,"inconclusive [inhibitor, partial curve]"
11,O=C(C1=C[C@H](c2ccc(Br)cc2)C[C@H](OCCCCO)O1)N1CCN(Cc2ccccc2)CC1,"inconclusive [activator, partial curve]"
12,Cc1ccc(/C=C2/C(=O)ON=C2c2ccccc2)o1,"inconclusive [activator, partial curve]"
13,C=CCn1c(SCc2csc(C)n2)nc2sc3c(c2c1=O)CCCCC3,"inconclusive [inhibitor, single point]"
14,Cc1cccc(NC(=O)c2nc[nH]c2C(=O)N[C@@H](CCCCNC(=O)OC(C)(C)C)C(=O)OC(C)(C)C)c1,"inconclusive [inhibitor, single point]"
15,CC(C)CCn1c(SCC#N)nc2c(sc3ccccc32)c1=O,"inconclusive [activator, partial curve]"
16,O=C(NC1CCCCC1)C(c1cccs1)N(C(=O)Cc1c[nH]c2ccccc12)c1ccc(F)cc1 (stereo not drawn),"inconclusive [inhibitor, partial curve]"
17,Nc1c(C(=O)c2ccc(Cl)cc2)sc2nsc(SCCN3CCOCC3)c12,"inconclusive [activator, single point]"
18,CCOC(=O)c1cccc(NC(=O)N[C@@H](C)C(=O)OC)c1,"inconclusive [inhibitor, single point]"
19,Cc1cc(=O)oc2c1ccc1oc(/C(=N/O)c3ccccc3)c(C)c12,"inconclusive [inhibitor, partial curve]"
20,COc1ccccc1NS(=O)(=O)c1ccc(C(=O)OCC(=O)NCc2ccco2)cc1,"inconclusive [inhibitor, partial curve, poor fit]"
21,CCN1CCCC1CNC(=O)C1c2ccccc2C(=O)N(CCOC)C1c1ccc(F)cc1 (stereo not drawn),"inconclusive [inhibitor, single point]"
22,NNC(=O)CN1C(c2ccccc2)=Nc2ccc(Br)cc2C1c1ccccc1 (stereo not drawn),"inconclusive [inhibitor, single point]"

row,Compound,Potency
1,COc1ccc(NC(=O)CC2CCCC2)cc1S(=O)(=O)N1CCCCC1,inactive
2,CCOc1ccc(C2Oc3nc(SC)nnc3-c3ccccc3N2C(C)=O)cc1OC (stereo not drawn),"inconclusive [inhibitor, single point]"
3,O=C(COc1ccccc1Cl)NCCc1ccc2c(c1)OCCO2,inactive
4,CN1CCc2c(cc(O)c(O)c2Cl)C(c2cccc(Cl)c2)C1 (stereo not drawn),inactive
5,COc1ccc(Oc2c(Cl)cnn(-c3ccc(Cl)c(Cl)c3)c2=O)cc1,active: 10 µM
6,COC(=O)CCCc1nc2ccccc2s1,inactive
7,O=c1ccc2c(o1)/C(=C/C=C(Cl)Cl)CCC2,inactive
8,Cc1ccc(Cc2c(C)c(C#N)c3[nH]c4ccccc4n3c2=O)cc1,"inconclusive [activator, partial curve]"
9,Cc1occc1C(=O)NNC(=O)Nc1ccc([N+](=O)[O-])cc1,inactive
10,CCc1c(C)n([O-])c2c([n+]1=O)CCC2,inactive
11,O=C(N/N=C/c1ccccn1)c1cc(-c2ccc(Br)cc2)nc2ccccc12,inactive
12,Cc1cc(C)c(NC(=S)N(CCN(C)C)Cc2cccs2)c(C)c1,inactive
13,Cc1ccc(N2CC(C(=O)Nc3ccc(N(C)C)cc3)CC2=O)cc1C (stereo not drawn),"inconclusive [inhibitor, partial curve]"
14,CNc1ccc(Br)cc(C(=O)/C=C/c2ccc3c(c2)OCO3)c1=O,"inconclusive [inhibitor, partial curve, poor fit]"
15,Cc1oc(C(C)(C)C)cc1C(=O)N1CCN(C(c2ccccc2)c2ccccc2)CC1,"inconclusive [activator, partial curve]"
16,O=C(NC(=S)Nc1ccccc1[N+](=O)[O-])c1ccccc1,inactive
17,Clc1ccc(-n2c(SC/C=C/c3ccccc3)nnc2-c2cccnc2)cc1,"inconclusive [inhibitor, single point]"
18,COc1ccc(CC(=O)Nc2ccc3c(c2)CCC3)cc1OC,"inconclusive [inhibitor, single point]"
19,Cc1cc(C)cc(-n2c(O)c(C=NC3CCS(=O)(=O)C3)c3ccccc3c2=O)c1 (stereo not drawn),inactive
20,COc1ccc(N2C(=O)CC(N3CCCC4CCCCC43)C2=O)cc1 (stereo not drawn),inactive
21,CC(=O)N(C)c1ccc(OCC(O)Cn2c3ccc(Cl)cc3c3cc(Cl)ccc32)cc1 (stereo not drawn),"inconclusive [inhibitor, single point]"
